Measured values published in PubChem BioAssay AID1745853 (National Center for Advancing Translational Sciences (NCATS), 2022).
Values joined by “and” are separate entries in the source; they are usually repeats but may differ in a detail not shown here. Equal values may be shown once. Some of the results follow. Further columns of the screen follow, without active or inactive calls.

Key:
Test in all cases: Primary Screen for Target Class Profiling of Small Molecule Inhibitors of Methyltransferases
[1] = biological target: Glycine N-methyltransferase (Homo sapiens) (UniProt Q14749); settings: purified enzyme, MTase-Glo SAH luminescence; measured here: GNMT inhibition; at 40 µM; stronger effect = lower value
Description: (§1) PI: Matthew D. Hall Ph.D. and Quinlin M. Hanson Ph.D.
(§2) National Center for Advancing Translational Sciences (NCATS)
(§3) National Institute of Health (NIH), Rockville, MD
(§4) Target class profiling (TCP) is a chemical biology approach amenable to investigating understudied biological targets. TCP is achieved by developing a generalizable assay platform and applying it to screen a curated set of compound libraries against representative members of a target class. Small molecule methyltransferases (SMMTase) are a subclass of methyltransferase that act on metabolites to modulate signaling pathways, metabolize xenobiotics, or balance the available methyl pool. We screened four curated libraries totaling 27,574 unique compounds against the SMMTases nicotinamide N-methyltransferase (NNMT), phenylethanolamine N-methyltransferase (PNMT), histamine N-methyltransferase (HNMT), glycine N-methyltransferase (GNMT), catechol O-methyltransferase (COMT), and guanidinoacetate N-methyltransferase (GAMT). The data generated by this TCP can be leveraged for informed tool molecule development. For example, in the associated publication we identified a chemotype of HNMT-selective inhibitors. Additionally, we identified a putative SMMTase-selective inhibitor with potential as a tool molecule for studying broader methyltransferase biology.
(§5) High-through put screening assays were developed at the National Center for Advancing Translational Science (NCATS) for the enzymes NNMT, PNMT, HNMT, GNMT, COMT, and GAMT. Enzymatic activity was measured as a function of SAM cofactor conversion using the MTase Glo kit (Promega) for all enzymes. All assays were performed in 1536-well format with substrates and SAM concentrations at KM values. Enzyme concentration and assay timing were optimized for 10-20% SAM conversion. Initial screening of 27,574 compounds was done as single-point assays using the highest compound concentration (40 uM). […] These compounds were replated in 11-point dose response and assayed against NNMT, PNMT, HNMT, GNMT, COMT, GAMT, and a counter-assay. The IC50 and efficacy (maximal response) values were determined for each dose-response curve. These values are also accounted for in the area under the curve (AUC) values.
(§6) PROTOCOL TABLE (as described by Inglese J, Shamu CE and Guy RK. 2007)
(§7) SEQUENCE No. (e.g., 1, 2, 3, etc.); […] (e.g., Cells, Incubation, Reagent, etc.); VALUE; DESCRIPTION.
(§8) 1; Reagent; 2 uL; SMMTase Enzyme (2x) in reaction buffer, columns 1- 48.
(§9) 2; Reagent; 1 uL; SAM (4x) in reaction buffer, columns 1-48.
(§10) 3; Controls; 23 nL; DMSO in column 4; sinefungin in DMSO (0 uM - 40 uM) in 7-point 1:2 dilution series (n = 2) in column 2.
(§11) 4; Compounds; 23 nL; Columns 5-48.
(§12) 5; Reagent; 1 uL; Substrate (4x) in reaction buffer, columns 2-48.
(§13) 6; Time; 20-30 min; Incubation.
(§14) 7; Reagent; 1 uL; MTase-Glo reagent (5X), columns 1-48.
(§15) 8; Time; 30 min; Incubation.
(§16) 9; Reagent; 5 uL; MTase-Glo Detection reagent, columns 1-48.
(§17) 10; Time; 30 min; Incubation, luminescence evolution.
(§18) 11; Detection; Luminescence; ViewLux uHTS Microplate Imager (PerkinElmer).
(§19) NOTES (numbers refer to Sequence numbers above)
(§20) 1, 2, 5. White Medium Binding Greiner 1536-well plates (Cat #789175-F, Greiner Bio-One, Monroe, NC); Reaction buffer: 50 mM Tris, pH 8.0, 3 mM MgCl2, 1 mM EDTA, 50 mM NaCl, 1 mM DTT, and 0.1 mg/mL BSA. Evaporation was prevented by covering assay plates with metal lids containing holes to allow gas diffusion.
(§21) 1. Six SMMTase were profiled: HNMT, GNMT, PNMT, COMT, NNMT, GAMT
(§22) 5. The corresponding substrate was used for each enzyme: HNMT - 5.3 uM Histamine; GNMT - >500 uM Glycine; PNMT - 16.2 uM Norephinephrine; COMT - 13.7 uM Norephinephrine; NNMT - 3.8 uM Nicotinamide; GAMT - 2.5 uM Guanidinoacetate.6, 8, 10. Room temperature
(§23) 6. Final reaction conditions: 10 nM COMT, 5 uM SAM, 15 uM norepinephrine, 50 mM Tris, pH 8.0, 3 mM MgCl2, 1 mM EDTA, 50 mM NaCl, 1 mM DTT, and 0.1 mg/mL BSA; refer to tables 2 and S1 for specific timing.
8. […]

[2] = biological target: Guanidinoacetate N-methyltransferase (Homo sapiens) (UniProt Q14353); settings: purified enzyme, MTase-Glo SAH luminescence; measured here: GAMT inhibition; at 40 µM; stronger effect = lower value
Description: as §1, §2, §3, §4, §5, §6, §7, §8, §9, §10, §11, §12, §13, §14, §15, §16, §17, §18, §19, §20, §21, §22, §23
8. […]

[3] = biological target: Histamine N-methyltransferase (Homo sapiens) (UniProt P50135); settings: purified enzyme, MTase-Glo SAH luminescence; measured here: HNMT inhibition; at 40 µM; stronger effect = lower value
Description: as §1, §2, §3, §4, §5, §6, §7, §8, §9, §10, §11, §12, §13, §14, §15, §16, §17, §18, §19, §20, §21, §22, §23
8. […]

[4] = biological target: Nicotinamide N-methyltransferase (Homo sapiens) (UniProt P40261); settings: purified enzyme, MTase-Glo SAH luminescence; measured here: NNMT inhibition; at 40 µM; stronger effect = lower value
Description: as §1, §2, §3, §4, §5, §6, §7, §8, §9, §10, §11, §12, §13, §14, §15, §16, §17, §18, §19, §20, §21, §22, §23
8. […]

[5] = biological target: Phenylethanolamine N-methyltransferase (Homo sapiens) (UniProt P11086); settings: purified enzyme, MTase-Glo SAH luminescence; measured here: PNMT inhibition; at 40 µM; stronger effect = lower value
Description: as §1, §2, §3, §4, §5, §6, §7, §8, §9, §10, §11, §12, §13, §14, §15, §16, §17, §18, §19, §20, §21, §22, §23
8. […]
On the % scale 0 is the no-effect control and ±100 the full control effect.

| Structure (SMILES) | activity change, negative = inhibition [1] | activity change, negative = inhibition [2] | activity change, negative = inhibition [3] | activity change, negative = inhibition [4] | activity change, negative = inhibition [5] |
| --- | --- | --- | --- | --- | --- |
| CCC(C)NC(=O)Cn1nc2n(C(C)C)c(=O)c3ccc(C(=O)NC4CCCCC4)cc3n2c1=O (centres undefined) | 4.61% | 0% | 10.8% | 7.87% | 4.58% |
| Cc1ccc(CN2CC(=O)N(Cc3ccccc3)c3ccccc3S2(=O)=O)cc1 | 14.3% | 0% | 12.9% | 1.81% | 10.5% |
| CNc1nccc(-c2cccnc2Oc2cc(C(=O)Nc3cccc(C(F)(F)F)c3)ccc2C)n1 | -0.277% | -7.46% | 6.74% | -20.2% | 1.93% |
| C[C@]12CC[C@@H]3c4ccc(O)cc4CC[C@H]3[C@@H]1CC[C@@H]2OC(=O)CCC1CCCC1 | -1.68% | -22.5% | 9.77% | -21.5% | -5.02% |
| COc1ccc(OC)c(CN2C(=O)c3ccc(-c4ccco4)n3CC2(C)C(=O)NCc2ccc(Cl)cc2)c1 (centres undefined) | -10.8% | -11.1% | 0.011% | -11.9% | -9.97% |
| Cc1ccsc1C(=O)N1C[C@@H](F)C[C@H]1C(=O)N1CCCCC1 | -2.77% | 2.6% | 2.3% | -0.982% | 1.8% |
| CC(=O)N1CCN(C(=O)c2nc(-c3ccccc3)cs2)CC(O)C1 (centres undefined) | -5.15% | -0.426% | 0.782% | 0.798% | 18% |
| COc1cc(O)ccc1OCCNCC(O)COc1cccc2[nH]c3ccccc3c12 (centres undefined) | -25.3% | -30.6% | -46.7% | -33.6% | -41.3% |
| Cn1c(=O)c2ccc(C(=O)NC3CCCCC3)cc2n2c(=O)n(Cc3ccc(Cl)cc3)nc12 | -2.62% | 3.76% | 1.26% | 0.425% | 2.26% |
| Cc1ccc(C)c(S(=O)(=O)N2[C@@H]3CC[C@H]2CC(NC(=O)c2ccc(F)cc2)C3)c1 (some centres undefined) | -7.48% | -9.64% | -7.37% | -13.3% | -2.73% |
| Cc1nnc([C@H]2CCN(C3CCN(C)CC3)C2)o1 | -1.94% | -4.02% | -1.97% | -4.5% | -17.3% |
| COc1cc(C)c(C(=O)O[C@@H]2[C@H](O)[C@@H](CO)O[C@H]2n2ccc(=O)[nH]c2=O)c(OC)c1 | -0.445% | 4.17% | 2.13% | -8.03% | 2.18% |
| CCc1cc2c(cc3n2CC(C)(C(=O)NC2CCCCCC2)N(Cc2ccccc2F)C3=O)s1 (centres undefined) | -1.22% | 3.38% | -1.03% | -2% | -4.27% |
| CC(C)(C)c1ccc(CN2CC3(COCC2=O)CN(c2cnccn2)C3)cc1 | -9.48% | 2.01% | -2.58% | -20.2% | -3.73% |
| COC(=O)c1cc2c(C(F)(F)F)cc(-c3ccccc3)cc2n1O | -1.95% | 8.5% | 5.84% | -20.9% | 2.16% |
| Cn1ncc(N2CCC(C(=O)N3CCC(C(N)=O)(N4CCCCC4)CC3)C2)cc1=O (centres undefined) | -3.05% | -6.54% | -3.02% | -9.32% | -16.2% |
| COc1ccc2cc3n(c2c1)CC(C)(C(=O)NCC1CCCO1)N(Cc1ccc2c(c1)OCO2)C3=O (centres undefined) | 3.52% | 1.59% | 5.34% | 8.92% | 1.68% |
| COc1ccc(NC(=O)c2c(C)nc3n2CCC(Nc2ccccc2C)C3)cn1 (centres undefined) | -10.1% | -5.2% | -15.6% | -8.87% | -9.53% |
| O=C(Cn1nc2n(Cc3ccc(F)cc3)c(=O)c3ccccc3n2c1=O)Nc1cccc(F)c1 | 1.83% | 3.45% | 9.76% | -0.012% | 3.18% |
| CCCCN(C)C(=O)Cn1c(=O)oc2cc(S(=O)(=O)N3CC(C)CC(C)C3)ccc21 (centres undefined) | -5.71% | -24.9% | 6.26% | 5.2% | -2.76% |
| CS(=O)(=O)CCNC(=O)C1CCCN(C2CCN(Cc3cccnc3)CC2)C1 (centres undefined) | -5.11% | -2.53% | -2.52% | -3.01% | -5.89% |
| Cc1cc(Nc2ccc(NC(=O)c3ccc(Nc4ccnc5ccccc45)cc3)cc2)nc(N)n1 | -13.1% and -19.8% | -40.1% | -51.9% and -72.5% | -6.74% and -55.4% | 23.5% and -27.1% |
| COc1ccc(-n2nc(C3CCCN(C(=O)c4ccc(Cl)nc4)C3)[nH]c2=O)cc1 (centres undefined) | -4.01% | -3% | -0.866% | -16% | -7.28% |
| CCC(NC(C)C)C(O)c1ccc(O)c(O)c1 (centres undefined) | -11.2% | 4.33% | -1.26% | -12.7% | -3.36% |
| COc1ccc(S(=O)(=O)N2CCC3(CCCCO3)CC2)cc1 | -9.54% | -9.59% | -2.2% | -14.3% | -7.87% |
| COC(=O)CCSC/C=C(\C)CCn1cc(CCc2ccc(-c3ccccc3)cc2)nn1 | -77.3% | – | -8.23% | -17.6% | 7.84% |
| CSc1ccc(CCNC(=O)Cn2ccc3cc(S(=O)(=O)N4CCC(C)CC4)ccc32)cc1 | 9.35% | 1.35% | 3.62% | 5.72% | 3.26% |
| COc1ccccc1CNC(=O)C1(C)Cn2nc(-c3ccccc3)cc2C(=O)N1Cc1ccco1 (centres undefined) | -0.359% | 4.43% | 3.07% | 0.676% | -0.969% |
| O=C(CCn1ccc2cc(S(=O)(=O)N3CCCC3)ccc21)NCc1ccco1 | -0.617% | -5.21% | -1.38% | -1.49% | -0.697% |
